# In the supplement of paper PMC8728848:
# The other results are listed elsewhere or left out.
# B1: Pbx1 (Cryptococcus neoformans) (protein)
# chain: ATTKCLVSGDQDSINNALALGGEGTTVTLCPGSVHRLNSSIIFTAPSQTLTTLGNPKDRNRAMLVVDGEDLACAIRADCKQCSHAMIRSLVIDGNRPQLLRIPKGDALIEVGNAESQTVRDCKLYEPRGWSALHFREGDERQCRFGHIVDNEIGPCGEEWDDEYDSMDETKPLWGNPRADGISLACKDSIVERNVVYDATDGAIVLFGSAGSTVKNNHVYARTRVILGGINLVDYEPWDGDYTNVKVHHNHLYALGRYFKVGIVIGPASWSDDTESVVHSASVTDNEFSGGYWGYGIVVASAKNFEVLRNKVIWDGEQGVARFSGVPGSRCPKAPENGKPTAFLINRGSAKGIFQDDFVNGEVQHIICLNPDQDPPYKPWRFRDSPEAIAAKQAENPTANSAFDSRIAEALVSYQMSLLNSMDAMTQKVEHLTNPIVDDALPFVHEHERAEADKKARQEASRKEKESGNKDVDMLNVKVEELEKSGRRLKKALDGLKSDFEGLSGRLKKSADENKPIIETIFVTSQNLLLGATSQQN
# Columns and labels:
# Test in all cases: glycan array binding signal (z-score within array); higher = stronger binding
# Settings in all cases: glycan notation: IUPAC condensed, linker removed
# [1] = biological target: Fuc(a1-3)[Gal(b1-4)]GlcNAc(b1-4)Gal(b1-4)[Fuc(a1-3)]GlcNAc
# Method in brief: (§1)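 Arrays were curated from the Consortium for Functional Glycomics database, 3228 in total, and kept only where the protein sequence was available. Binding is expressed as a within-array Z-score. This score was averaged across arrays of the same protein sequence at different concentrations or buffers and across linkers, and negative values can be read as non-binding.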
# [2] = biological target: Fuc(a1-3)[Gal(b1-4)]GlcNAc(b1-4)Gal(b1-4)[Fuc(a1-3)]GlcNAc(b1-4)Gal(b1-4)[Fuc(a1-3)]GlcNAc
# Method in brief: as §1
# [3] = biological target: Fuc(a1-3)[Gal(b1-4)]GlcNAc(b1-6)GalNAc
# Method in brief: as §1
# [4] = biological target: Fuc(a1-3)[Gal(b1-4)]GlcNAc(b1-6)[Gal(b1-3)GlcNAc(b1-3)]Gal(b1-4)Glc
# Method in brief: as §1
# [5] = biological target: Fuc(a1-3)[Gal(b1-4)]GlcNAc6S
# Method in brief: as §1
# [6] = biological target: Fuc(a1-3)[Gal3S(b1-4)]Glc
# Method in brief: as §1
# [7] = biological target: Fuc(a1-3)[Gal3S(b1-4)]GlcNAc
# Method in brief: as §1
# [8] = biological target: Fuc(a1-3)[Gal3S(b1-4)]GlcNAc6S
# Method in brief: as §1
# [9] = biological target: Fuc(a1-3)[GalNAc(b1-4)]GlcNAc
# Method in brief: as §1
# [10] = biological target: Fuc(a1-3)[GalNAc(b1-4)]GlcNAc6S
# Method in brief: as §1
# [11] = biological target: Fuc(a1-4)GlcNAc
# Method in brief: as §1
# [12] = biological target: Fuc(b1-3)GlcNAc
# Method in brief: as §1
# [13] = biological target: Gal(a1-2)Gal
# Method in brief: as §1
# [14] = biological target: Gal(a1-3)Gal
# Method in brief: as §1
# [15] = biological target: Gal(a1-3)Gal(b1-3)GlcNAc
# Method in brief: as §1
# [16] = biological target: Gal(a1-3)Gal(b1-3)GlcNAc(b1-2)Man
# Method in brief: as §1
# [17] = biological target: Gal(a1-3)Gal(b1-3)GlcNAc(b1-2)Man(a1-3)[Gal(a1-3)Gal(b1-3)GlcNAc(b1-2)Man(a1-6)]Man(b1-4)GlcNAc(b1-4)GlcNAc
# Method in brief: as §1
# [18] = biological target: Gal(a1-3)Gal(b1-3)GlcNAc(b1-3)GalNAc
# Method in brief: as §1
# [19] = biological target: Gal(a1-3)Gal(b1-3)GlcNAc(b1-6)GalNAc
# Method in brief: as §1
# [20] = biological target: Gal(a1-3)Gal(b1-3)[Fuc(a1-4)]GlcNAc(b1-2)Man(a1-3)[Gal(a1-3)Gal(b1-3)[Fuc(a1-4)]GlcNAc(b1-2)Man(a1-6)]Man(b1-4)GlcNAc(b1-4)GlcNAc
# Method in brief: as §1
# [21] = biological target: Gal(a1-3)Gal(b1-4)Glc
# Method in brief: as §1
# [22] = biological target: Gal(a1-3)Gal(b1-4)GlcNAc
# Method in brief: as §1
# [23] = biological target: Gal(a1-3)Gal(b1-4)GlcNAc(b1-2)Man
# Method in brief: as §1
# [24] = biological target: Gal(a1-3)Gal(b1-4)GlcNAc(b1-2)Man(a1-3)[Gal(a1-3)Gal(b1-4)GlcNAc(b1-2)Man(a1-6)]Man(b1-4)GlcNAc(b1-4)GlcNAc
# Method in brief: as §1
# [25] = biological target: Gal(a1-3)Gal(b1-4)GlcNAc(b1-3)GalNAc
# Method in brief: as §1
# [26] = biological target: Gal(a1-3)Gal(b1-4)GlcNAc(b1-6)GalNAc
# Method in brief: as §1
# [27] = biological target: Gal(a1-3)Gal(b1-4)[Fuc(a1-3)]GlcNAc
# Method in brief: as §1
# [28] = biological target: Gal(a1-3)Gal(b1-4)[Fuc(a1-3)]GlcNAc(b1-2)Man(a1-3)[Gal(a1-3)Gal(b1-4)[Fuc(a1-3)]GlcNAc(b1-2)Man(a1-6)]Man(b1-4)GlcNAc(b1-4)GlcNAc
# Method in brief: as §1
# [29] = biological target: Gal(a1-3)GalNAc
# Method in brief: as §1
# [30] = biological target: Gal(a1-3)[Gal(a1-4)]Gal(b1-4)GlcNAc
# Method in brief: as §1
# [31] = biological target: Gal(a1-4)Gal(b1-3)GlcNAc(b1-2)Man(a1-3)[Gal(a1-4)Gal(b1-3)GlcNAc(b1-2)Man(a1-6)]Man(b1-4)GlcNAc(b1-4)GlcNAc
# Method in brief: as §1
# [32] = biological target: Gal(a1-4)Gal(b1-4)Glc
# Method in brief: as §1
# [33] = biological target: Gal(a1-4)Gal(b1-4)GlcNAc
# Method in brief: as §1
# [34] = biological target: Gal(a1-4)Gal(b1-4)GlcNAc(b1-2)Man(a1-3)[Gal(a1-4)Gal(b1-4)GlcNAc(b1-2)Man(a1-6)]Man(b1-4)GlcNAc(b1-4)GlcNAc
# Method in brief: as §1
# [35] = biological target: Gal(a1-4)Gal(b1-4)GlcNAc(b1-3)Gal(b1-4)Glc
# Method in brief: as §1
# [36] = biological target: Gal(a1-4)GlcNAc
# Method in brief: as §1
# [37] = biological target: Gal(a1-6)Glc
# Method in brief: as §1
# [38] = biological target: Gal(b1-2)Gal
# Method in brief: as §1
binder,measurement,setting,value
B1,glycan array binding signal (z-score),[1],0.596
same,glycan array binding signal (z-score),[2],0.276
same,glycan array binding signal (z-score),[3],2.34
same,glycan array binding signal (z-score),[4],-0.738
same,glycan array binding signal (z-score),[5],0.038
same,glycan array binding signal (z-score),[6],-0.501
same,glycan array binding signal (z-score),[7],0.636
same,glycan array binding signal (z-score),[8],0.635
same,glycan array binding signal (z-score),[9],-0.199
same,glycan array binding signal (z-score),[10],-0.113
same,glycan array binding signal (z-score),[11],-0.495
same,glycan array binding signal (z-score),[12],-0.308
same,glycan array binding signal (z-score),[13],0.197
same,glycan array binding signal (z-score),[14],-0.553
same,glycan array binding signal (z-score),[15],-0.267
same,glycan array binding signal (z-score),[16],1.04
same,glycan array binding signal (z-score),[17],-0.308
same,glycan array binding signal (z-score),[18],-0.71
same,glycan array binding signal (z-score),[19],-0.38
same,glycan array binding signal (z-score),[20],0.645
same,glycan array binding signal (z-score),[21],-0.233
same,glycan array binding signal (z-score),[22],-0.019
same,glycan array binding signal (z-score),[23],0.052
same,glycan array binding signal (z-score),[24],0.276
same,glycan array binding signal (z-score),[25],0.661
same,glycan array binding signal (z-score),[26],1.25
same,glycan array binding signal (z-score),[27],-0.987
same,glycan array binding signal (z-score),[28],1.75
same,glycan array binding signal (z-score),[29],-0.233
same,glycan array binding signal (z-score),[30],0.498
same,glycan array binding signal (z-score),[31],2.14
same,glycan array binding signal (z-score),[32],0.349
same,glycan array binding signal (z-score),[33],0.846
same,glycan array binding signal (z-score),[34],2.25
same,glycan array binding signal (z-score),[35],-0.696
same,glycan array binding signal (z-score),[36],-0.459
same,glycan array binding signal (z-score),[37],-0.908
same,glycan array binding signal (z-score),[38],-0.107
